# Experimental data as given in the supplement of paper PMC11417369.
# ± gives the standard deviation of the averaged measurements. Some of the results follow.
# Test system: PfAP2-I AP2 domain 3 (GST-tagged)
# Assay: gcPBM binding intensity (ln(normalized median fluorescence intensity)); higher = stronger DNA binding
# How it was run: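 Binding intensity is the highest Masliner-normalised natural-log median intensity over replicate spots in either probe orientation. To obtain it, GST-tagged P. falciparum DNA-binding domains made in E. coli were incubated for 1 h on an Agilent 4 × 180k array of primer-extended double-stranded 36-bp intergenic genomic probes plus negative controls. Detection used Alexa488 anti-GST antibody with scanning at 488 nm.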
row,Sequence,gcPBM binding intensity (ln)
1,TACATATATATATGTATATATATATATATATAAATA [XGTACX_negctrl_site351],7.94 ± 0.45
2,ACATAACTGATATATACACACAATACAAATATAGAT [CACACA_site7328],7.85 ± 0.51
3,AAATGTGCATTATGTTGTACAGTCGAAATTTTTTTT [XGTACX_site3812],11.1 ± 0.62
4,ATGAATAAATGAACATGTACATATATATATATATTA [XGTACX_site5005],7.76 ± 0.47
5,AAATTAAAAAGAGCTTGTACAGATGTATACATAATA [XGTACX_site3882],7.84 ± 0.56
6,TATATGAAGCTATAGACACACATATAAAAATAGAAT [CACACA_site1313],7.84 ± 0.67
7,AATTTATATGTTTTGTGTACACAATTTATTAAATTA [XGTACX_site6448],8.1 ± 0.3
8,TTTATAATTCTTACAACACACAATGTACATTTATAT [CACACA_site1261],7.92 ± 0.49
9,ATTATATATAAATATACACACATATATAAAATACAT [CACACA_site5298],7.64 ± 0.5
10,TACATACAGATATATACACACATATAAAATATAGAT [CACACA_site6319],7.75 ± 0.45
11,AAGAGAAAAATATGGTTGCACTAAAAATATATATTT,9.51 ± 0.13
12,TTTGACAAATTATTGTGTACACAATATTATTATATA [XGTACX_site8320],7.92 ± 0.23
13,ACAAAATGTAGATATTGTACATATTGTAGATATTGT [XGTACX_site7619],7.61 ± 0.48
14,AATAAAAAAGAATATACACACATAAATATAAAATAT [CACACA_site683],7.62 ± 0.81
15,AATTAAAAAGAAAAAAGTACATATTTTTTTAAAAAA [XGTACX_site7384],7.82 ± 0.39
16,AAATATATATTTCTTAGTACATATGTATTTTTTTTT [XGTACX_site938],7.68 ± 0.46
17,ATATATATATATATGTGTACTAATAAGGTTAAATAA [XGTACX_site1535],9.29 ± 0.23
18,CTTCCTTAGGAATGTACACACATATATAATATGTTG [CACACA_site461],7.67 ± 0.39
19,TACAGACAGAAATGCACACACATATTTATATTTATA [CACACA_site7139],9.025 ± 0.035
20,ATTATATATATATAAACACACAAATATTTTTATATA [CACACA_site5005],7.61 ± 0.4
21,TAATATTAATCCTAGTGTACATTAATTTATATGTAT [XGTACX_site3583],7.78 ± 0.47
22,ACCTATATAAGTTATACACACAAATATAGATATATA [CACACA_site7356],7.96 ± 0.35

row,Sequence,gcPBM binding intensity (ln)
1,TTTACAGAAAGTTACATACACACTAATATTTACACC [CACACA_site1009],8.44 ± 0.23
2,ATTTAAGATTTAATCACACACATATAGATTATAGAC [CACACA_site7383],7.8 ± 0.67
3,ATGAAGAAGTGTAAATGTACATTTTATGTAGAACAA [XGTACX_site6925],7.97 ± 0.62
4,TTATTTTTTTTTTATTGTACTAGGAAAATTTCGATA [XGTACX_site702],7.71 ± 0.36
5,TTTATATGTATTAAGTGTACACATATAATGTGTTTG [XGTACX_site6629],7.85 ± 0.071
6,TATAAGAGGATATATACACACAAAAATATGTACAGT [CACACA_site6885],7.92 ± 0.52
7,ACCATACAGAATAATGCATGTTCCTTTTTATGAATA [TGCATGCA_site995],7.95 ± 0.67
8,TATACTTGTAAATGCACACATAAGATGCGACTAATG [CACACA_site2118],9.8 ± 0.38
9,AAAAAAATAAAGGATATACACACTAATTATATATAT [CACACA_site2812],8.09 ± 0.49
10,CCAACATAGAGGGGCACACACATATATACCTAAAAA [CACACA_site5088],8.3 ± 0.28
11,CTGTGTTTTGGTTGTACACACGCTACATTCTATATT [CACACA_site2698],8.72 ± 0.13
12,AAAATAATTGTTTACACACCCATTTGTAATTTTACC [CACACA_site3614],7.9 ± 0.67
13,AGATTATAAAATTCTACACACATATATACCTATATA [CACACA_site5848],7.78 ± 0.56
14,TTTTTTTTTTGATGAGCACACATGTTTTTTCTTAGA [CACACA_site3171],8.24 ± 0.65
15,AAAAAATATTTATGTTCACACATTTTATATATGATA [CACACA_site4821],7.57 ± 0.53
16,AAATATTTTTAAAGAAGTACTTTTTAAAAATAATCT [XGTACX_site4897],7.71 ± 0.49
17,AATAAATATATATACACACCCATATATATATATATA [CACACA_site2595],9.16 ± 0.53
18,GCGTATACTTGTAACGGTACACAGGAAATTATAGAA [XGTACX_site507],8.18 ± 0.89
19,TCTTTGTTTTTTTTTTTTAAACAAAATCATCAAAGG [XGTACX_negctrl_site192],7.6 ± 0.49
20,AAGATACACCTTTTTAGTACTTACATTTTTTTTATT [XGTACX_site1373],8 ± 0.65
21,TATATATATGGACACACACACACCAAAGCGTAGCGC [CACACA_site4209],8.27 ± 0.57
22,TAATGTTGTTTCTGAGGTACACAATTTTTTTTATTT [XGTACX_site8035],7.62 ± 0.39
